Consider 44 sequences from the supplement of paper PMC11417369.

The other results are listed elsewhere or left out.

The subject of the test is PF3D7_0420300 AP2 domain 1 (GST-tagged). Kind of test: gcPBM binding intensity (ln(normalized median fluorescence intensity)); higher = stronger DNA binding. The essentials:
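After 1 h on an Agilent 4 × 180k array of primer-extended double-stranded 36-bp intergenic genomic probes and negative controls, bound GST-tagged P. falciparum DNA-binding domains were detected with Alexa488 anti-GST antibody and scanned at 488 nm. The domains had been expressed in E. coli, and binding took place in 1× PBS with 1% milk, 0.2 mg/ml BSA, 0.5% salmon testes DNA and 0.03% Triton X-100. Binding intensity is the highest Masliner-normalised natural-log median intensity across replicate spots of either probe orientation.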
As to “ATAAATATAAATATATGTACATATATATATATATAT [XGTACX_site7433]”, the “gcPBM binding intensity (ln)” value came out at 9.16.

In the case of “TTAAATAATATTAGCCGTACAATTTAAAGATAATAA [XGTACX_site8503]”, the “gcPBM binding intensity (ln)” value amounted to 9.13.

Turning to “GAAAGGGCAGGAACTATTAATACACTGATCGATAAG [CACACA_negctrl_site1458]”, the “gcPBM binding intensity (ln)” value was 9.22.

Consider “AATTATAGCTGTATCTGTACGCATTTATTTATAGAC [XGTACX_site5959]”, for which the “gcPBM binding intensity (ln)” value is 9.27.

Regarding “TTTAATACTTTATATGCATGCAGAGAAAAATGCTTG [TGCATGCA_site286]”, the “gcPBM binding intensity (ln)” value was determined as 8.91.

With “AAAAAAAAGTATGATTCTAAATTTATGTATATATAA [GTGCAC_negctrl_site669]”, the “gcPBM binding intensity (ln)” value is 9.

In the case of “ATACATATAGGATGCACACATAATTCAAATACAATA [CACACA_site651]”, the “gcPBM binding intensity (ln)” value was 9.59.

Consider “TTTGAAATATATTTAGTGCATATATATTGATTATAA [GTGCAC_site9604]”, for which the “gcPBM binding intensity (ln)” value worked out at 8.99.

On to “ATGAATATAATGAAGTGTACATAAAAATAATAAATA [XGTACX_site2481]”, for which the “gcPBM binding intensity (ln)” value worked out at 9.66.

In the case of “ATCTAGTACATACATACACACAACAATGTTATGAGA [CACACA_site3989]”, the “gcPBM binding intensity (ln)” value is 9.55.

For the sequence “CAATTTTGCCCTTCCTGTACATATATTGAAAAATAT [XGTACX_site6388]”, the “gcPBM binding intensity (ln)” value was found to be 9.2.

Turning to “TGTTTTGTTGTGTATTGTACTAATATAAATATATAA [XGTACX_site1852]”, the “gcPBM binding intensity (ln)” value was determined as 9.3.

For the sequence “TTTTATGATTGACACACACACAAAAAAAAAAAAAAA [CACACA_site7860]”, the “gcPBM binding intensity (ln)” value was 9.46.

For “TAAAAAAACGCACTCGTACACACATATTTTCTTTCT [CACACA_site3090]”, the “gcPBM binding intensity (ln)” value was 9.55.

In the case of “TATATTTGGAAAACATGTACATATAACAATATGTAA [XGTACX_site324]”, the “gcPBM binding intensity (ln)” value was determined as 9.11.

On to “AATAAAAAAGGAAACAAATTAATATATATATATATA [CACACA_negctrl_site467]”, for which the “gcPBM binding intensity (ln)” value turned out to be 9.15.

Turning to “CGTACATAATTTTAATCACACACAAACAAACACATA [CACACA_site7947]”, the “gcPBM binding intensity (ln)” value is 9.93.

As for “AAAAAAAGAAATAATAAAAAATATATATATATATAT [GTGCAC_negctrl_site702]”, the “gcPBM binding intensity (ln)” value came to 9.

Take “AAGACACAAAAACACACACACATACATACATACATA [CACACA_site454]”: the “gcPBM binding intensity (ln)” value was 9.91.

On to “TATGTTGATGATGATAGTACATATGAGTTCAAAAAA [XGTACX_site7712]”, for which the “gcPBM binding intensity (ln)” value turned out to be 9.05.

For the sequence “TAAAATTCGAAAAATTGTACTATTTATATATCTGTA [XGTACX_site6478]”, the “gcPBM binding intensity (ln)” value was determined as 9.11.

As for “ATCAACATTACATTTAGTACACATATATTTCTATGT [XGTACX_site4436]”, the “gcPBM binding intensity (ln)” value stood at 9.52.

Consider “TAGTTAGGCCCTACATGTACATAATATATATTACTT [XGTACX_site1137]”, for which the “gcPBM binding intensity (ln)” value came to 9.47.

For “CTAATTAATATTTGTACACACATATTTAACCTACTA [CACACA_site3191]”, the “gcPBM binding intensity (ln)” value is 9.53.

Regarding “TATATAAGTATAAAATGTACATAAAATTTTATGTTA [XGTACX_site2613]”, the “gcPBM binding intensity (ln)” value was determined as 9.27.

In the case of “ACAAAATGTAAATAAACACACATATTTATATTTATA [CACACA_site6719]”, the “gcPBM binding intensity (ln)” value is 9.31.

“AATAAAATATTATGTGCATGCTGTTTTATTTATTAA [TGCATGCA_site102]”: the “gcPBM binding intensity (ln)” value is 9.24.

“TTGGTGGATAAATTTACACACAATAATTTTCGTTCA [CACACA_site467]”: the “gcPBM binding intensity (ln)” value is 9.39.

AATTCACCAAAAAAAGTGCATATTCAATATATATTA: the “gcPBM binding intensity (ln)” value was found to be 9.02.

“TAAAACAAAACAAAAATAGGATTATATTCCTTTTTT [CACACA_negctrl_site1003]”: the “gcPBM binding intensity (ln)” value is 9.14.

As to “ATAATTTCAATATTTAATATCATATATATATATTTT [GTGCAC_negctrl_site713]”, the “gcPBM binding intensity (ln)” value was found to be 9.16.

In the case of “AAATAAAAAAATACCCAACACCATGCCAAATGTGAA [CACACA_negctrl_site411]”, the “gcPBM binding intensity (ln)” value stood at 9.63.

With “ATATATATATATATATGTACATATGTGTATATAACT [XGTACX_site495]”, the “gcPBM binding intensity (ln)” value amounted to 9.51.

Turning to “TATAGCATATCTCACACACACATAATGAATATTATA [CACACA_site5877]”, the “gcPBM binding intensity (ln)” value turned out to be 9.85.

Take “ATATTAAACAGACACACACACATATATTTATTTATA [CACACA_site7564]”: the “gcPBM binding intensity (ln)” value came to 10.

“TGTATTATATAAAATTGTACATGCGAATTGTATAAC [XGTACX_site902]”: the “gcPBM binding intensity (ln)” value was determined as 9.45.

On to “AAAATGAACTCACGAGCACACACACCCATATATATA [CACACA_site8247]”, for which the “gcPBM binding intensity (ln)” value amounted to 9.75.

In the case of “TATAGCTATGTATTCACACATAATATAAACTTTAAT [CACACA_site5889]”, the “gcPBM binding intensity (ln)” value came out at 9.13.

As for “TAATTTTTTTTAATAACACACATATATATATATATA [CACACA_site813]”, the “gcPBM binding intensity (ln)” value was 9.11.

For “ATAAAATGAAATATATATGTGTATGCTTAACTTGTT [CACACA_negctrl_site431]”, the “gcPBM binding intensity (ln)” value turned out to be 9.44.

As for “AAAGGATGTAATATAAACATATATATGTATATATAT [TGCATGCA_negctrl_site347]”, the “gcPBM binding intensity (ln)” value is 9.44.

For “ATTGTTTTATATAGAACACACATAAAAATATATATG [CACACA_site1193]”, the “gcPBM binding intensity (ln)” value was found to be 9.36.

Take “TAATATTCCTTTTTAACACACATATGAACAAATAAA [CACACA_site153]”: the “gcPBM binding intensity (ln)” value was found to be 9.31.

For the sequence “TAAAAATTTACATGTTGTACATATAATTATATAATC [XGTACX_site4577]”, the “gcPBM binding intensity (ln)” value stood at 9.03.
